The supplement of paper PMC7826260
This is one part of the list. Cleavage of a single-stranded DNA pool by Rep nickase domains was read by sequencing for 1 h at 37 °C with 3 µM enzyme; only the middle of the 90-letter strands is printed. Values are log2 of uncut reads against the no-enzyme pool; the lower, the more was cut; hits are not called. The scaling is to total reads; values above 0 arise when much of the pool is cut.

Key:
Assay in all cases: uncleaved DNA left, log2 of reads against the no-enzyme library (log2 ratio); higher = less cleavage (more negative = more Rep cleavage of the k-mer); sequences stand for … in CTCGTCCG…ACCGGAGA
[1] = system: T1, Rep nickase domain of Muscovy duck circovirus
T1 sequence (protein, residues 1-111, tag omitted): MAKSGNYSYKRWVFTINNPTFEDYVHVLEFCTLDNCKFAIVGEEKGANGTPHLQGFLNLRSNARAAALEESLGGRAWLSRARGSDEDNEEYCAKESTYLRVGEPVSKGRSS
Protocol: (§1)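 A pool of 90-nt single-stranded DNAs with seven random bases just before the constant AC of the nick site (name = the seven bases) was cut by 3 µM recombinant His6-SUMO-tagged Rep nickase domain (300 nM DNA, 50 mM HEPES pH 8.0, 50 mM NaCl, 1 mM MnCl2, 1 h, 37 °C, three replicates). Uncut DNA was amplified and sequenced.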

[2] = system: T2, Rep nickase domain of banana bunchy top virus
T2 sequence (protein, residues 1-94, tag omitted): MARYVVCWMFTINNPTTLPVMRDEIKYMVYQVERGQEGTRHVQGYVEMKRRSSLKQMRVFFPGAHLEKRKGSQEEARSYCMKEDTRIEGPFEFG
Protocol: as §1

[3] = system: T3, Rep nickase domain of cabbage leaf curl virus
T3 sequence (protein, residues 1-116, tag omitted): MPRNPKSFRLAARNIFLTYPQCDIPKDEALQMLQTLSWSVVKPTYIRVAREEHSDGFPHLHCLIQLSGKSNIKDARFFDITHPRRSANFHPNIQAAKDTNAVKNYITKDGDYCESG
Protocol: as §1

[4] = system: T4, Rep nickase domain of chickpea chlorotic dwarf virus
T4 sequence (protein, residues 1-124, tag omitted): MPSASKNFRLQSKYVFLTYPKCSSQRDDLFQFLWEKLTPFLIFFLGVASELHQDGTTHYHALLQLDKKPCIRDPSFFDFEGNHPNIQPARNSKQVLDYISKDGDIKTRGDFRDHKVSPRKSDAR
Protocol: as §1

[5] = system: T5, Rep nickase domain of faba bean necrotic yellows virus
T5 sequence (protein, residues 1-98, tag omitted): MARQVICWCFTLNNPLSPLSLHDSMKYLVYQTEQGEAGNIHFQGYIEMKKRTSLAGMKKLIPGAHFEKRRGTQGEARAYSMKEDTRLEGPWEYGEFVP
Protocol: as §1

[6] = system: T6, Rep nickase domain of maize striate mosaic virus
T6 sequence (protein, residues 1-117, tag omitted): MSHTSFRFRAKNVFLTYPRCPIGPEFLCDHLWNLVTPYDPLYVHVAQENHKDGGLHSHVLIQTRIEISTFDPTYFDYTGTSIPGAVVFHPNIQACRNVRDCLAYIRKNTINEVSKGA
Protocol: as §1

[7] = system: T7, Rep nickase domain of porcine circovirus 2
T7 sequence (protein, residues 2-116, tag omitted): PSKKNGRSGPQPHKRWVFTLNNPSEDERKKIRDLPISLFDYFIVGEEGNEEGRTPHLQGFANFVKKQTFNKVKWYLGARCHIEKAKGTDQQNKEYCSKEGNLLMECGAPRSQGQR
Protocol: as §1

[8] = system: T8, Rep nickase domain of tomato golden mosaic virus
T8 sequence (protein, residues 1-124, tag omitted): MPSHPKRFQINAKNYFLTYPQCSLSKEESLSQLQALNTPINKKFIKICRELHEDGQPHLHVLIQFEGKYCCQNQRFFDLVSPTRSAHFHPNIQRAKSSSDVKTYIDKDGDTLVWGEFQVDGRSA
Protocol: as §1

[9] = system: T9, Rep nickase domain of tomato yellow leaf curl virus
T9 sequence (protein, residues 1-136, tag omitted): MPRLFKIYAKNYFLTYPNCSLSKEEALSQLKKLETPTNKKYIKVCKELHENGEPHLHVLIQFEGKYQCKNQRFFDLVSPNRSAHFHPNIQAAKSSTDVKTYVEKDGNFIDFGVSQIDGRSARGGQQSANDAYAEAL
Protocol: as §1

[10] = system: T10, Rep nickase domain of wheat dwarf virus
T10 sequence (protein, residues 1-137, tag omitted): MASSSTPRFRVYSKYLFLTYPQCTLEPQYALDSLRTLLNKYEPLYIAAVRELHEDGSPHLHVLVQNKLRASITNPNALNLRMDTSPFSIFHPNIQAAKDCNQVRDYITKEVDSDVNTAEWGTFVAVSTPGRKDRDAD
Protocol: as §1

Sequence	uncleaved DNA left (log2) [1]	uncleaved DNA left (log2) [2]	uncleaved DNA left (log2) [3]	uncleaved DNA left (log2) [4]	uncleaved DNA left (log2) [5]	uncleaved DNA left (log2) [6]	uncleaved DNA left (log2) [7]	uncleaved DNA left (log2) [8]	uncleaved DNA left (log2) [9]	uncleaved DNA left (log2) [10]
CTGGGTA	0.00418	-0.189	0.0178	0.155	0.0243	0.544	-0.0458	-0.128	-0.0364	-0.0958
TAAACGG	0.146	0.206	0.602	1.68	0.0599	2.09	0.224	0.208	0.0822	0.241
CTGTTTC	-0.0671	0.0682	0.0723	-0.0617	-0.0028	-0.517	-0.125	-0.146	-0.0329	-0.00369
GGTCGAC	0.00664	0.083	0.793	1.82	0.0507	2.16	0.264	0.0296	0.0347	0.136
TTGCTTG	-0.239	-0.048	-0.719	-0.996	0.0911	-1.1	0.00358	-0.124	-0.0225	-0.154
ATTGATA	-0.0362	-0.0584	-0.143	-0.234	0.0281	0.00732	-0.0688	0.0344	0.0725	0.0383
AAGGACT	0.143	0.0205	0.0501	1.3	-0.0598	1.58	0.0811	0.0404	-0.0593	0.0829
AGGACTT	0.0286	0.145	0.554	1.62	-0.00702	2.15	0.0193	0.0148	0.0173	0.231
AGGCACA	-0.0201	0.176	0.304	0.476	0.07	1	0.0933	0.113	0.0877	0.141
CGGGTAT	0.15	0.197	0.697	1.58	0.122	1.96	0.138	0.138	0.0544	0.0666
GAATTTA	-0.0316	0.144	-0.0594	-0.775	0.139	0.932	-0.454	0.0629	0.125	-0.0144
CACATAC	-0.00964	-0.114	-0.303	-0.778	-0.158	-1.04	0.00696	-0.0977	-0.161	-0.0648
TGACGAA	-0.0244	-0.0737	0.144	0.316	-0.0177	0.352	-0.197	0.0424	0.0241	0.0813
GACAAGT	0.0221	0.129	0.349	0.244	0.0596	0.244	-0.227	0.0715	0.128	0.234
CACTCAA	0.0237	0.0731	-0.027	-1.02	-0.214	-0.623	-0.694	0.0272	-0.19	0.053
CCGTCTG	-0.044	-0.0536	-0.0457	0.604	-0.0512	1.22	-0.112	-0.0624	-0.151	0.0839
GACTTTC	-0.272	-0.0923	0.312	0.662	-0.104	1.04	-0.463	-0.187	-0.0398	0.0373
TTCAATG	0.036	-0.0395	-0.387	-0.569	0.0572	-0.926	0.0467	0.127	0.0397	-0.00838
AGTACAT	0.0499	0.137	0.723	1.5	0.0123	1.8	-3.3	0.133	0.075	0.237
AAGCTGG	0.143	0.03	0.375	1.5	0.0422	1.37	0.249	0.166	-0.0881	0.189
AGATCTA	-0.0276	-0.0322	0.188	-0.0461	-0.0585	0.543	-0.163	0.0113	-0.0711	0.132
AAGCCCC	-0.0635	-0.145	0.0534	-0.391	-0.101	-0.0023	-0.00457	-0.117	-0.0605	0.0363
GTGTGAG	-0.0345	-0.038	-0.302	-0.168	0.0955	-0.727	0.0139	-0.235	0.00945	-0.169
GCCCTGT	-0.00811	-0.0788	-0.0123	0.0815	-0.0865	0.111	-0.0669	-0.114	-0.0873	-0.221
AAGACTC	0.154	0.102	0.142	0.377	0.0446	1.02	0.0379	0.0123	0.0236	0.17
CGTGCGG	0.0749	0.0161	0.442	1.36	0.0302	1.58	0.0939	0.167	-0.0745	0.000507
CAGTCGC	-0.0156	-0.0469	-0.095	0.597	-0.0584	0.841	-0.587	-0.0298	0.0714	-0.132
GACCGCC	-0.0274	-0.0951	0.0169	0.0143	-0.0322	-0.233	-0.0189	-0.0279	-0.0609	-0.0716
AGCGCTG	0.0167	0.0513	0.0729	0.575	-0.00973	1.77	-0.0259	0.13	-0.0335	-0.0138
TACTGCA	-0.644	-0.0949	-0.506	-1.42	-0.0519	-0.958	-2.64	-0.0184	0.118	-0.149
